Data from PubChem BioAssay (NCATS).
The inconclusive results got no clear call from the source; some entries with a clear call stand among them for comparison. No potency is given beside an inconclusive call; the fits are too rough. Calls of active or inactive are those of the source. Calls come from the whole dose curve; as a rule, active = well fitted inhibition curve with a large enough effect; inconclusive = small, poorly fitted or top-dose-only effect; inactive = flat fitted curve, though single readings scatter.

Target: Ubiquitin carboxyl-terminal hydrolase 1 (Homo sapiens) (UniProt O94782)
Assay: Inhibitors of USP1/UAF1: Pilot qHTS (AID 504865);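 note: rhodamine fluorescence freed from ubiquitin-rhodamine substrate followed over time; nearly all actives have a fitted effect of over 35% in size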; for activity change, negative = inhibition: top concentration of the series differs between compounds
Conditions: purified USP1/UAF1, Ub-rhodamine cleavage fluorescence; series mostly up to 114 µM; activity change, negative = inhibition: at the top concentration
How it was run: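 USP1/UAF1 complex (1nM) preincubated with compound 15 min at room temperature, then Ub-Rho substrate (150nM final) added. Fluorescence read kinetically at 480/540 nm, 6 reads every 60 seconds. Buffer: 50mM HEPES pH 7.8, 0.5mM EDTA, 0.1 mg/ml BSA, 1mM TCEP, 0.01% Tween-20.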
% is set by controls: 0 for no effect and ±100 for the full control effect; potency is the fitted concentration of half-maximal effect; tags give direction and shape of the fitted curve.

UniProt O94782, sequence (O94782 whole entry, looked up): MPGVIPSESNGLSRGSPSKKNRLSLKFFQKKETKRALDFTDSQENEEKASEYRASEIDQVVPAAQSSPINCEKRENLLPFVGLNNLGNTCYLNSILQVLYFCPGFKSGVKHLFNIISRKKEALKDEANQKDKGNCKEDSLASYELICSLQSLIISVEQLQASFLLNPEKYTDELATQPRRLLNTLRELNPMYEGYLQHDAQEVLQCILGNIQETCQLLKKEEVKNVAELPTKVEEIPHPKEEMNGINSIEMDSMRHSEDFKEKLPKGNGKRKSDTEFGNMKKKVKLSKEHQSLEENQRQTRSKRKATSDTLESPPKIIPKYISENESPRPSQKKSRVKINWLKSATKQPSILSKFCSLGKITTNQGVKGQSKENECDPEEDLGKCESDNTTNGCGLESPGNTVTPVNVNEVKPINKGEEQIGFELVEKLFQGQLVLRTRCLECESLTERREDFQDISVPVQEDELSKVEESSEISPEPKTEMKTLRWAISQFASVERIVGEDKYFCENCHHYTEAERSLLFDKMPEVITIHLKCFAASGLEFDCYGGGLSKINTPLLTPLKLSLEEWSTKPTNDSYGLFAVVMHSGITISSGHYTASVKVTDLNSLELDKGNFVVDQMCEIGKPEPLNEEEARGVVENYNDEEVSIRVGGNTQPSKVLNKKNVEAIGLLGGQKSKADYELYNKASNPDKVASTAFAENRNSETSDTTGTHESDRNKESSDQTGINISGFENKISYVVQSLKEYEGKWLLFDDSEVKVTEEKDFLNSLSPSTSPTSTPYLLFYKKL

SMILES	Potency	activity change, negative = inhibition
CC(C)C[C@H]1C(=O)N2CCC[C@@H]2[C@@]2(O)O[C@](NC(=O)[C@@H]3C=C4c5cccc6[nH]cc(c56)C[C@@H]4N(C)C3)(C(C)C)C(=O)N12	active: 14.1 µM	
C/C(O)=C(/C#N)C(=O)Nc1cc(Br)ccc1Br	inconclusive [inhibitor, partial curve, poor fit]	
CCCCC/C=C\C/C=C\C/C=C\C/C=C\CCCC(=O)O	active: 50.1 µM	
C[C@@]12CC[C@H]3[C@@H](CCC4=CC(=O)CC[C@]43C)[C@H]1CC[C@H]2C(=O)CO	inconclusive [inhibitor, single point]	
COC(=O)/C(C)=C\CC12OC(C)(C)C3CC(C=C4C(=O)c5c(OC)c6c(c(CC=C(C)C)c5OC431)OC(C)(CCC=C(C)C)C=C6)C2=O (stereo not given)	active: 39.8 µM	
COc1ccc(C[C@H]2NC[C@H](O)[C@@H]2OC(C)=O)cc1		inactive: -0.123%
Cc1ccccc1-c1cncnc1NCCc1cnc[nH]1		inactive: -10.4%
CC(C1OC(C)(C)C(O)C1O)C1CC[C@@]2(C)C3=CCC4C(C)(C)C(=O)CC[C@]4(C)C3CC[C@@]12C (stereo not given in full)	inconclusive [inhibitor, partial curve, poor fit]	
NC[C@H](CS(=O)(=O)O)c1ccc(Cl)cc1	inconclusive [inhibitor, partial curve, poor fit]	
CC1CC[C@@]2(OC1)O[C@@H]1[C@@H](O)[C@H]3C4CC[C@H]5C[C@@H](O[C@@H]6O[C@H](CO)[C@H](O[C@@H]7O[C@H](CO)[C@@H](O)[C@H](O[C@@H]8OC[C@@H](O)[C@H](O)[C@H]8O)[C@H]7O[C@@H]7O[C@H](CO)[C@@H](O)[C@H](O[C@@H]8O[C@H](CO)[C@@H](O)[C@H](O)[C@H]8O)[C@H]7O)[C@H](O)[C@H]6O)[C@H](O)C[C@]5(C)C4CC[C@]3(C)[C@H]1[C@@H]2C (stereo not given in full)	inconclusive [inhibitor, partial curve, poor fit]	
